# The full ranking holds about 33,000 sequences; the median of “E-score (-0.5 to 0.5)” is about -0.01, and the highest 2% start at about 0.26. The list shows a part of the results.
# Biological target: Ste12 (UniProt P13574)
# Experiment: PBM E-score (8-mer binding enrichment) (E-score (-0.5 to 0.5)); higher = stronger / more preferred TF binding; most listed sequences are background and not binding sites
# Conditions: protein concentration: 200 nM; construct: GST-DNA-binding domain
# Procedure, shortened: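 Universal all-10-mer Agilent arrays, fresh or stripped once, were converted to double-stranded form by primer extension. GST-tagged yeast transcription factors from PURExpress in vitro transcription/translation, full-length or DNA-binding domain only, were applied at about 100-200 nM and detected with fluorescent anti-GST. After masliner normalisation, the Universal PBM Analysis Suite scored each ungapped eight-base word together with its reverse complement by E-score.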
row,Sequence,PBM E-score
1,ACCGAGGG,-0.286
2,AGGGCTCG,-0.2
3,CCTCACCA,-0.00215
4,AAGAAATG,0.229
5,AAGTGGTA,-0.0776
6,ATTTTTGA,0.298
7,ACTTAATG,-0.00069
8,CTGGTCCC,-0.148
9,CCAACGAG,-0.0542
10,AACTATTA,0.0788
11,ATATGCAA,-0.0415
12,ATATTATG,0.303
13,GTCGCTAA,-0.0102
14,CATCCTCG,-0.0832
15,GATTAATC,0.0706
16,CTATTGAG,0.0902
17,AGCGTTCC,-0.166
18,AATGGTTA,0.0312
19,CCACGCCG,-0.187
20,GATCCAGA,0.102
21,CAGCGATA,-0.0269
22,AGATAATC,-0.0301
23,ACGTACTC,0.0471
24,CCCTATAA,0.00323
25,TCCATAAA,0.11

row,Sequence,PBM E-score
1,CGATCCTC,-0.292
2,CTCTGGTC,0.0382
3,AAGGCAGA,0.0822
4,GTCTCCAC,-0.101
5,CCAAGGAG,-0.101
6,CGTGTGAA,0.14
7,GCGATCTA,0.0687
8,CAGGTTCA,-0.0316
9,CTGGACTA,-0.102
10,AGCCATAT,-0.0376
11,ATCGTGCA,0.0196
12,ATCGAGAC,0.0135
13,CCGCTCAG,0.108
14,CCATCGAG,-0.0652
15,TATTAATA,0.336
16,CCAACTAC,0.0929
17,CAACACGG,0.0245
18,CTTCGCGC,0.029
19,CTCCTCGA,-0.101
20,ACGGACAC,-0.131
21,GACACAGA,-0.138
22,CAGCCTAA,-0.0731
23,AAGGGACT,-0.11
24,AAGACTAT,-0.0149
25,AAGATTCA,0.138

row,Sequence,PBM E-score
1,GGTTTAAC,0.0536
2,GCATCCAC,-0.0681
3,CTGGGAAC,-0.0225
4,ACTTTGGA,0.132
5,AGTATACA,-0.108
6,ACTGTTTG,0.188
7,GACTTAAA,-0.054
8,ACTCTCTC,-0.0599
9,ATGCGTTG,0.0252
10,ACGGCCCG,0.0206
11,AATTGTAC,0.0447
12,ACAAGAAT,0.137
13,CAGAGCAG,0.078
14,CTTAAGCC,-0.179
15,ACTTCACA,-0.00253
16,CCCAACGC,0.0783
17,CAACATAC,0.0206
18,GAGTGCGA,-0.0155
19,GTCTGTTA,0.0898
20,AATCTACC,0.0153
21,GTTCATAA,0.198
22,GACACCTA,-0.0929
23,ATATAACA,0.23
24,CTATGAAA,0.211
25,ACACTTCT,-0.00302

row,Sequence,PBM E-score
1,AGGGCGGC,-0.0895
2,ATTGATAG,-0.0262
3,CCATATAC,0.0835
4,CAGCAGTC,-0.105
5,CTGTGGTA,-0.0102
6,AACCTTAC,0.168
7,GCCAGAAA,0.203
8,TACAACAA,0.249
9,CGCTGAGA,-0.0821
10,TGCGTACA,-0.128
11,ACTGTCCG,-0.0128
12,AGCGTTAC,-0.0898
13,GGAAATAC,0.0882
14,ATGGAGAA,-0.0326
15,AGTCCGAC,0.0181
16,AGAACGGA,-0.202
17,GACAATAC,0.176
18,CTGCAATC,0.0401
19,TAAGATGA,0.0722
20,ATCCGTAG,-0.162
21,CTACAGTA,0.0907
22,CCTCGACA,-0.0403
23,CTGTCAGA,0.0092
24,CATCTCTC,-0.00146
25,AAAACTCG,0.125

row,Sequence,PBM E-score
1,TCACTGAA,0.0974
2,CCCAGGTC,-0.207
3,ATTCTTAC,0.163
4,CCTGCGCC,0.0287
5,ATTAGAGG,-0.0381
6,AGTCGTTC,-0.178
7,AGATGGAT,-0.113
8,ACTCAAAA,0.165
9,CACCTCGA,0.155
10,CACCGTAA,0.00184
11,ATATAGAC,-0.074
12,ACGCAACG,-0.0814
13,CCCCAGAC,-0.122
14,CTAACGCA,-0.0702
15,GAGTCCAC,-0.214
16,ATTGCGGA,0.105
17,CCGCAAGG,-0.0677
18,AGATTATA,0.191
19,ATTCTCCG,0.0592
20,AAACACGA,0.129
21,CACACGAG,-0.116
22,ATTTTGTA,0.16
23,TCAGCGAA,-0.0329
24,CAGCTTCA,-0.0224
25,ACTCGAAT,-0.144

row,Sequence,PBM E-score
1,CGTAGCGA,0.00985
2,CACGATTA,-0.0445
3,ATCCTTCG,-0.0587
4,GGTGGGTA,0.0601
5,CGCGACCA,0.151
6,GATGGCAC,-0.0893
7,AGTCTGAC,-0.174
8,AAAACTGA,-0.0102
9,CACAAAAG,0.0603
10,CAGGGCTC,-0.234
11,GTGAGGTA,0.0806
12,CAGCCACC,-0.0103
13,AGTAATAT,0.117
14,CTCAGACC,0.0442
15,CGAGAAAA,0.128
16,CTAATCGC,0.0206
17,TTATCAAA,0.274
18,GCGCTACC,-0.107
19,AAGAAGCA,0.0796
20,ATTTAATA,0.267
21,AAATGGAA,0.0869
22,TATGAACA,0.17
23,GCGAGGCA,0.0343
24,AAGACGCT,-0.14
25,CTATGGCA,-0.0307

row,Sequence,PBM E-score
1,TCATGCCA,0.00418
2,ACTAGCCG,-0.2
3,CCTCTGCA,-0.207
4,CAGCCCTC,-0.217
5,AGGCGGTG,-0.143
6,ACACGGCC,-0.0545
7,CCAACCAA,0.0513
8,TCGTAAAA,0.279
9,CGCTGAGC,-0.154
10,CCTACGAC,-0.109
11,GACCGAAA,0.0377
12,AGTTGGGC,-0.00996
13,GGTTTTTA,0.166
14,AAGTCTCG,-0.0618
15,CAAAAGTA,0.0684
16,ACTAACTA,0.00065
17,CCGGAGGA,-0.0129
18,ATGGGCTA,0.0469
19,CCGCGGGA,0.237
20,ACCGTAAG,-0.00259
21,TCTTTTAA,0.142
22,ATGGCACA,0.0636
23,CCGTTGAG,-0.291
24,CTCTCCAA,-0.12
25,GCCGTTGA,-0.078

row,Sequence,PBM E-score
1,GCTTATGA,-0.0985
2,GTTGTACA,0.016
3,GGCCATGA,-0.128
4,CGACGTCC,-0.00575
5,AGACATCA,-0.00189
6,CAGGGTTA,-0.0364
7,ACTGTCAC,0.0531
8,AGGTGTTA,-0.0663
9,AACATTGG,0.0507
10,ACAATAAA,0.142
11,CCCGTTAA,-0.0753
12,GCTCGAGA,-0.248
13,ACGACGCT,0.0306
14,ATAGCTAC,-0.186
15,TCTGAAGA,-0.149
16,AAACAACA,0.287
17,CGATTATC,-0.0182
18,ACGCCACC,-0.0716
19,ATAATTTG,0.212
20,CCACATCG,0.0133
21,CGGGGATA,0.152
22,AAGTTGTA,0.194
23,TCTCTGCA,-0.0711
24,GTAGTGAC,-0.121
25,CGCATCCA,-0.0639

row,Sequence,PBM E-score
1,AGGCATTA,-0.076
2,CATCGACG,-0.0613
3,GGCTGTAA,0.0732
4,AAGGGTCG,-0.177
5,GAGAACGA,0.0582
6,CGGGGTCC,-0.168
7,AGATCTCA,0.0566
8,GCTCGATA,0.0716
9,CAAAGGGC,0.0737
10,ATGGGACG,-0.0447
11,CATGCTCG,-0.0627
12,AAGGCTTA,-0.127
13,AAATGGCA,-0.0228
14,GTAGTATA,0.162
15,ACGCTTGA,-0.00784
16,AGGCGCCG,0.14
17,AGTGTTAC,0.181
18,ACCGCATG,0.0572
19,AAGGCCGT,0.00388
